This is one part of the list.
system: HepG2; assay: cytotoxicity call (relative viability < 0.9); conditions: 10 µM

SMILES | cytotoxicity call
COc1ccc(S(=O)(=O)Nc2ccc3c(c2)C(=O)N([C@@H](C)CO)C[C@@H](C)[C@@H](CN(C)CC2CCCCC2)OCCCC[C@H](C)O3)cc1 | active
NC(=O)NC(=O)C[C@H]1Nc2ccccc2NC1=O | inactive
COc1cccc(NC(=O)N(C)C[C@H]2Oc3cc(C#CC4(O)CCCC4)ccc3S(=O)(=O)N([C@@H](C)CO)C[C@@H]2C)c1 | inactive
C[C@@H]1CN([C@H](C)CO)C(=O)c2cc(NS(=O)(=O)c3cn(C)cn3)ccc2O[C@@H]1CN(C)C(=O)NC1CCCCC1 | inactive
C[C@H](CO)N1C[C@H](C)[C@H](CN(C)S(=O)(=O)c2ccccc2)OCCCC[C@H](C)Oc2ccc(NS(C)(=O)=O)cc2C1=O | inactive
O=C(O)CCC(=O)O | inactive
COc1ccccc1S(=O)(=O)N(C)C[C@H]1Oc2ncc(Br)cc2C(=O)N([C@@H](C)CO)C[C@H]1C | inactive
O=c1[nH]cc(F)c(=O)[nH]1 | active
Cc1ccc(S(=O)(=O)N(C)C[C@@H]2Oc3ccc(NC(=O)CCCN(C)C)cc3CC(=O)N([C@@H](C)CO)C[C@H]2C)cc1 | inactive
C[C@H](CO)N1C[C@H](C)[C@H](CN(C)S(C)(=O)=O)Oc2cc(C#CCN(C)C)ccc2S1(=O)=O | inactive
COc1ccc([Si](C)(C)[C@@H]2[C@@H](CCO)O[C@]3(C(=O)N(Cc4cccc(N5C(=O)COc6ccccc65)c4)c4ccccc43)[C@H]2C)cc1 | active
COc1ccc(CN(C)C[C@@H]2OCCCC[C@@H](C)Oc3ccc(NC(=O)Nc4c(C)noc4C)cc3C(=O)N([C@@H](C)CO)C[C@@H]2C)cc1 | inactive
